Experimental data taken from PubChem BioAssay AID1671194 (National Center for Advancing Translational Sciences (NCATS), 2021).
“And” between values parts separate entries of the source, which are not always exact repeats. Equal entries are not always repeated. The campaign covered roughly 140,000 compounds. About 240 (0.17%) were called active. The shares of active, inactive and inconclusive entries below differ from those in the screen. Calls come from the whole dose curve; as a rule, active = well fitted inhibition curve with a large enough effect; inconclusive = small, poorly fitted or top-dose-only effect; inactive = no such curve, though single readings can be large or run the other way. Potencies beside an inconclusive call are fits to weak or partial responses and may not hold up.

Test: Primary qHTS assay for inhibitors of alpha-synuclein gene (SNCA) expression; note: nearly all actives have a fitted effect of over 45% in size
Conditions: HEK-293 SNCA-luciferase knock-in, luminescence, 24 h; series mostly up to 57.2 µM
Potency is the fitted concentration of half-maximal effect; tags give direction and shape of the fitted curve.

| SMILES | Potency |
| --- | --- |
| CN(C)C(=O)c1ccc2cncn2c1 | inactive |
| CCc1ccc(S(=O)(=O)N2c3ccccc3CC2c2nnc(C3CCOCC3)o2)cc1 (stereo not drawn) | inconclusive: 8.91 µM [inhibitor, single point] |
| O=C(NCc1ccc(F)cc1)Nc1cccc(-c2ccc(N3CCOCC3)nn2)c1 | inactive |
| O=C(NCCc1ccc(Cl)cc1)C1CCc2nnc(C3CCN([S+](=O)([O-])c4ccccc4Cl)CC3)n21 (stereo not drawn) | inactive |
| COc1ccc(-c2cc(C(=O)NCc3ccnc(N)c3)c3c(c2)ncn3C)cc1 | inactive |
| Cc1ccc(-c2cc(N)n(Cc3cccc(Cl)c3)n2)cc1 | inconclusive: 0.178 µM [inhibitor, partial curve, poor fit] |
| Clc1ccccc1C1(c2ccnc(C3CCCC3)n2)CCNCC1 | inconclusive: 20 µM [inhibitor, partial curve, poor fit] |
| O=C(C1CC2(CCNCC2)CN1)N1CCc2c(nc(CC3CC3)[nH]c2=O)C1 (stereo not drawn) | inconclusive: 1.41 µM [inhibitor, partial curve, poor fit] |
| O=C1NC(=NC2CCCCC2)C2(CCCN(Cc3ccccc3)C2)N1c1cc(F)cc(F)c1 (stereo not drawn) | inconclusive: 22.4 µM [inhibitor, partial curve] |
| CCOc1cc(=O)n2c(c1C(=O)Nc1ccccc1CC)CCCC2 | inconclusive: 0.708 µM [inhibitor, partial curve, poor fit] |
| COc1ccc(C(=O)N2CCn3c(nnc3[C@@H]3C[C@@H](O)CN3C(C)C)C2)cn1 | inactive |
| COc1ccc(NC(=O)c2ccc3c(c2)N(Cc2cccc(Cl)c2)C(=O)c2ccccc2S3(=O)=O)cc1Cl | inconclusive: 11.2 µM [inhibitor, partial curve] |
| NCCc1cccc(CN2CCC(OCc3ccccc3)CC2)c1 | inactive |
| CN1CCC([C@@H]2CN(C(=O)NCCc3ccccc3)C[C@H]2C(N)=O)CC1 | inconclusive: 39.8 µM [inhibitor, single point] |
| COc1cc(C(=O)N2CCc3c([nH]c4ccccc34)C2c2ccc(F)cc2)cc(OC)c1OC (stereo not drawn) | inconclusive: 25.1 µM [inhibitor, single point] |
| CCC(=O)N1CCc2cc(CNC(=O)Cc3ccc(OC)c(OC)c3)ccc21 | inconclusive: 12.6 µM [inhibitor, partial curve] |
| COc1cccc(-c2ccc(C(=O)N3CCC(NC(=O)c4ccccc4C)CC3)cc2)c1 | inactive |
| CNC(=O)[C@@H]1C[C@H](n2cc(CNS(=O)(=O)c3cc(C)ccc3F)nn2)CN1 | inconclusive: 39.8 µM [inhibitor, single point] |
| COCC1CN(C)CC12CCN(S(=O)(=O)c1ccc3c(c1)CCC3)CC2 (stereo not drawn) | inconclusive: 39.8 µM [inhibitor, single point] |
| O=C1c2c(O)ccc(O)c2C(=O)c2c(NCCNCCO)ccc(NCCNCCO)c21 | active: 1.21 µM and inconclusive: 10 µM [inhibitor, partial curve, poor fit] and inconclusive: 39.8 µM [inhibitor, partial curve, poor fit] |
| COc1cccc(CNC(=O)[C@@]23CCCC[C@H]2N(CCc2ccccc2)C(=O)CC3)c1 | inactive |

| SMILES | Potency |
| --- | --- |
| Cc1noc(C)c1S(=O)(=O)N1CCC(N(C(=O)C2CC2)C2CCOCC2)CC1 | inconclusive: 3.16 µM [inhibitor, single point] |
| Cc1nc(-c2cccc(Cl)c2)n(CC(=O)NC(C)CCc2ccccc2)c(=O)c1CCO (stereo not drawn) | inconclusive: 2.24 µM [inhibitor, single point] |
| Cn1cnnc1CC1CCN(C(=O)c2cc(F)ccc2F)CC1 | inconclusive: 39.8 µM [inhibitor, single point] |
| Cc1ccc(Cn2cc(-c3ccncc3)cc2C(=O)NC2CC2)cc1 | inactive |
| O=C(CNC(=O)c1cccc(-c2ccsc2)c1)NC1CCC1 | inactive |
| Cc1ccc(-n2ncc(C(=O)N3CCN(C4CCCCC4)CC3)c2C2CCN(C(=O)OC(C)(C)C)CC2)cc1C | inconclusive: 39.8 µM [inhibitor, single point] |
| CC1(C(=O)NCCCN2CCCC2=O)CCCCC(=O)N1 (stereo not drawn) | inconclusive: 2.82 µM [inhibitor, full curve, poor fit] |
| O=C(c1ccccc1)N1CCCC2(C1)C(=NC1CCCC1)NC(=O)N2c1cccnc1 (stereo not drawn) | inconclusive: 39.8 µM [inhibitor, single point] |
| Cc1ccc(C)c(NC(=O)CCS(=O)(=O)c2cccc3nsnc23)c1 | inconclusive: 10 µM [inhibitor, partial curve] |
| FC(F)(F)c1ccc(-c2noc([C@@H]3Cc4nc[nH]c4CN3CC3CCCCC3)n2)cc1 | inconclusive: 56.2 µM [inhibitor, single point] |
| CN(C)c1ccc(Nc2nc(N)n(C(=O)c3c(F)cccc3F)n2)cc1 | inactive |
| CCOc1cc(C2C(C(=O)Nc3ccccc3)=C(C)Nc3ncnn32)cc(Br)c1O (stereo not drawn) | inconclusive: 39.8 µM [inhibitor, single point] |
| O=C(NC1CCCC1)N1CCC(c2nn(-c3ccccn3)c(=O)[nH]2)CC1 | inconclusive: 3.55 µM [inhibitor, full curve] |
| O=C1c2cc(N3CCOCC3)nc(-c3cccc(F)c3)c2CN1CC1CC1 | inactive |
| CC1=NS(=O)(=O)N(CCc2ccccc2)C=C1C(=O)O | inconclusive: 12.6 µM [inhibitor, partial curve, poor fit] |
| COCCCn1c(=O)c(C(=O)NCCc2ccc(F)cc2)nc2cccnc21 | inactive |
| CNC(=O)N1CCC(C2CCN(S(=O)(=O)c3cccc(C#N)c3)C2)CC1 (stereo not drawn) | inconclusive: 39.8 µM [inhibitor, single point] |
| COC[C@H]1C[C@@H](NS(=O)(=O)c2ccc(F)cc2)[C@H](O)[C@@H]1O | inconclusive: 63.1 µM [inhibitor, partial curve, poor fit] |
| Cc1nc(C)c(C(=O)Nc2nn(Cc3ccccc3)c3cccc(OC(C)C)c23)o1 | inactive |
| CCCC(=O)N1Cc2ccccc2CC2(CCCN(CC3CCNC3)C2)C1 (stereo not drawn) | inactive |
| COc1ccc(N2C(=O)CSC23C(=O)N(Cc2ccccc2F)c2ccccc23)cc1Cl (stereo not drawn) | inconclusive: 39.8 µM [inhibitor, single point] |

| SMILES | Potency |
| --- | --- |
| Cc1ccc(OCc2nc(C3CN(C(=O)c4n[nH]c5ccccc45)C3)no2)cc1 | inactive |
| O=C(c1cc(Cl)ccc1Cl)N1CCN(c2cc(-c3ccccc3)[nH]n2)CC1 | inactive |
| CCOC(=O)CN(Cc1ccccc1)C(C(=O)NC1CCCCC1)c1ccc(C)cc1 (stereo not drawn) | inconclusive: 39.8 µM [inhibitor, single point] |
| Cc1c(C(=O)NCc2ccccc2Cl)sc2nc(-c3ccc(F)cc3)cn12 | inconclusive: 20 µM [inhibitor, single point] |
| COc1cccc([C@@H]2CN(C(=O)c3n[nH]c4c3CCCC4)C[C@H]2C(=O)O)c1 | inconclusive: 7.08 µM [inhibitor, single point] |
| COc1ccc(-c2cc(N3CCC(NC(=O)c4ccccc4)CC3)n[nH]2)cc1 | inactive |
| Cc1ccc(F)c(NC(=O)[C@@H]2COCC(=O)N2Cc2ccc(F)cc2)c1 | inconclusive: 0.708 µM [inhibitor, full curve, poor fit] |
| CC(C)(C)OC(=O)N1CCC(c2c(C(=O)NCCN3CCOCC3)cnn2-c2ccccc2)CC1 | inconclusive: 25.1 µM [inhibitor, partial curve, poor fit] |
| CCOC(=O)c1c(Nc2ccccc2)nnc(-c2ccccc2)c1-c1ccccc1 | inconclusive: 22.4 µM [inhibitor, partial curve, poor fit] |
| O=S(=O)(c1cnc[nH]1)N1CCC(c2nc(CCOCC3CC3)no2)C1 (stereo not drawn) | inconclusive: 31.6 µM [inhibitor, single point] |
| O=C(CCc1ccccc1)NCCC1CCN(C(=O)Nc2ccccc2)CC1 | inconclusive: 39.8 µM [inhibitor, single point] |
| O=C(CCC1CCCC1)NCCC1CCN(C(=O)Nc2cccc(F)c2)CC1 | inconclusive: 7.08 µM [inhibitor, partial curve, poor fit] |
| CC(=O)Nc1cccc(OCC2CN(Cc3cccc(C(F)(F)F)c3)C(=O)c3c(ccnc3-c3ccc(OCC(=O)O)cc3)O2)c1 (stereo not drawn) | inconclusive: 28.2 µM [inhibitor, single point] |
| CCOc1ccc(Nc2c(S(=O)(=O)c3ccc(C)cc3)cnc3ccccc23)cc1 | inconclusive: 1.12 µM [inhibitor, full curve, poor fit] |
| CCc1ccc(-n2c(=O)c3cccnc3n2CC(=O)N(CC)c2cccc(C)c2)cc1 | inconclusive: 28.2 µM [inhibitor, partial curve, poor fit] |
| Cc1cc(O)c(C)c(C)c1O | inactive |
| CCn1cc2nc(SCc3cccc(C(F)(F)F)c3)n(CCc3ccccc3)c(=O)c2n1 | inconclusive: 17.8 µM [inhibitor, partial curve, poor fit] |
| COCc1nncn1C1CCN(C(=O)C2(c3ccccc3)CC2)CC1 | inconclusive: 0.794 µM [inhibitor, full curve, poor fit] |
| Cc1c(CCNC(=O)c2ccc(C(F)(F)F)cc2)sc2nc(-c3ccc(F)cc3)nn12 | inconclusive: 39.8 µM [inhibitor, single point] |
| CCC[C@@H]1CN(C(=O)c2ccc(-c3ccc(C)o3)cc2)C[C@H]1NC(C)=O | inactive |
| O=C(c1ccc2c(c1)OCO2)N1CC(c2noc(C3CCCN3CC3CC3)n2)C1 (stereo not drawn) | inconclusive: 39.8 µM [inhibitor, single point] |
